System: Vcap cells (androgen receptor (+) prostate cancer cells)
Experiment: CTG cell proliferation assay (CellTiter-Glo), compounds alone or in combination
[1] = Homo sapiens, VCaP, 120 h, read-out: Survival rate of Vcap cells

SMILES | effect of tested compound in combination with the other therapeutic agents (prednisone, Galeterone, Abiraterone acetate, ODM-201) (Vcap cell survival, without B001, summary in words) | viability at 1 µM [1] [%] | viability at 10 µM [1] [%]
CC1(C)C(=O)N(c2ccc(C#N)c(C(F)(F)F)c2F)C(=S)N1c1ccc(CCCc2ncco2)nc1 [AR2-5] | did not improve significantly |  | 
CC1(C)C(=O)N(c2ccc(C#N)c(C(F)(F)F)c2F)C(=S)N1c1ccc(CCCC#N)c(F)c1 [AR2-4] |  | 73.5 | 41
